Molecular target: T1, B42-AR18-500 (rat androgen receptor N-terminus, residues 18-500, fused to the B42 activation domain) (rat, UniProt P15207 18-500)
T1 construct: range 18-500; Yeast two-hybrid bait, galactose-inducible; also called AR18-500-AD; pJG4-5:AR18-500
T1 sequence (looked up): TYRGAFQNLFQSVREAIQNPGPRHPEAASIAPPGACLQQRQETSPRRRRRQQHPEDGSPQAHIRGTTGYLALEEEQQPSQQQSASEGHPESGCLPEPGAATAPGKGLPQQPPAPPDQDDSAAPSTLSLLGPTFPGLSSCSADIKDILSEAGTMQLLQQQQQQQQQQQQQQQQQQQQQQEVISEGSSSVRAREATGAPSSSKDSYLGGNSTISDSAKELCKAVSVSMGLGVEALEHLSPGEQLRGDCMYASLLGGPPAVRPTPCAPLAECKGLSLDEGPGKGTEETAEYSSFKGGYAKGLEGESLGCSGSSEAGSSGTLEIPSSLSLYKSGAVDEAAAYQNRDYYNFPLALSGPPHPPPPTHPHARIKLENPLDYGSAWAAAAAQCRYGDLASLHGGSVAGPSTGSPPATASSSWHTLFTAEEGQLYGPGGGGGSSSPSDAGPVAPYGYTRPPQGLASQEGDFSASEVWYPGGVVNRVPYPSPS
Experiment: modified yeast two-hybrid, quantitative liquid beta-galactosidase assay
From the text: Out of approximately one million library transformants, eight clones were isolated that interact with the androgen receptor N-terminus. There protein factors were termed ARTs, for Androgen Receptor Trapped, by the present inventors. The eight ART clones were sequenced and were subjected to a database search using the BLAST program. A quantitative liquid beta-galactosidase assay was used to measure the relative strength of interaction between the androgen receptor N-terminus and the ARTs using the yeast two-hybrid system. The levels of expression of the ARTs in yeast were similar, as determined by immunoblotting using an antibody to the LexA DNA-binding domain that is common to all of the ARTs.
ARTs expressed as fusion proteins with the LexA DNA binding domain were analyzed for their ability to interact with AR₁₈₋₅₀₀. The relative strength of interaction was determined by a quantitative liquid beta-galactosidase assay after a twelve hour incubation in galactose-containing media at 30° C. The LexA vector alone gives 1 unit of activity.

B1: ART-27 (full length, […]; LexA DNA binding domain fusion) (other)
chain: MKALTARQQEVFDLIRDHISQTGMPPTRAEIAQRLGFRSPNAAEEHLKALARKGVIEIVSGASRGIRLLQEEEEGLPLVGRVAAGEPLLAQQHIEGHYQVDPSLFKPNADFLLRVSGMSMKDIGIMDGDLLAVHKTQDVRNGQVVVARIDDEVTVKRLKKQGNKVELLPENSEFKPIVVDLRQQSFTIEGLAVGVIRNGDWL[about 150 residues left out]
notes: also called LexA-ART-27; pEG202:ART-27
B1: binds.

— patent publication US20020137019A1 (NEW YORK UNIVERSITY, published 2002)
